# Experimental data taken from article PMC6602471.
# The other results are listed elsewhere or left out. At the low end of the ranking the order means little.
# Target: T1, ELK1 (UniProt P19419)
# T1 sequence: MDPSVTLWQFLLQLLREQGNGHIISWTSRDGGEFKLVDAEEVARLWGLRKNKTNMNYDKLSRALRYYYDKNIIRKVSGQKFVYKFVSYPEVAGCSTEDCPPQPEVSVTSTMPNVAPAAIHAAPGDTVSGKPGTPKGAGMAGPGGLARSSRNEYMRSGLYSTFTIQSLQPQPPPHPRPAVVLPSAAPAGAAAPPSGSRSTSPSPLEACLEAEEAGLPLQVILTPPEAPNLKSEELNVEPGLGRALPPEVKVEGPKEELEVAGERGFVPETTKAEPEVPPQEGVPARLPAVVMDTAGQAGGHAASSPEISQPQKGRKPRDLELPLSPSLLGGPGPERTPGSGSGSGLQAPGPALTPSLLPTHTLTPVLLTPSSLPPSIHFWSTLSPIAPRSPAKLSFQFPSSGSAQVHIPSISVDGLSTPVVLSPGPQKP
# Assay: custom PBM
# Conditions: custom protein-binding microarray; buffer, salt, pH and temperature not stated; high values mean tight binding; double strand, one strand shown
row,Sequence,binding signal (log fluorescence intensity)
1,CTGGGACTTGACCCAACTCTGCCACGTGGGTCTTTTGTCTTGATTCGCTTGACGCTGCTG,8.84
2,TCCGGCTACCAGCTCCACCCAGTTCAGGCCTTGTAGGTCTTGATTCGCTTGACGCTGCTG,8.98
3,GTGTATAGGATCCCATCCAACACACGTGTTAGAATGGTCTTGATTCGCTTGACGCTGCTG,8.79
4,CTGGGACTTGACCCAACTCTGCTACGTGGGTCGTTTGTCTTGATTCGCTTGACGCTGCTG,8.94
5,GTGTATAGGATCCCATCCAACACTCGTGTTAAAATGGTCTTGATTCGCTTGACGCTGCTG,8.95
6,CCGCATAGGACTTCTTCCCTGAAGCAATTGATAACCGTCTTGATTCGCTTGACGCTGCTG,8.86
7,GGAAAAAGGCCCAGGGTAACACCGGAAGTGCGCTTAGTCTTGATTCGCTTGACGCTGCTG,11
8,TAAAGGGAAGACGGTTGTGGTAGTTCGGGGTATTAAGTCTTGATTCGCTTGACGCTGCTG,8.99
9,TACTGACTTATATATACGAATGCACATGAATAGACCGTCTTGATTCGCTTGACGCTGCTG,8.81
10,CTGGGACTTGACCCAACTCTGCCAGGTGGGTCGTTTGTCTTGATTCGCTTGACGCTGCTG,8.97
11,TACTGACTTACATATGCGAATGCACATGAATAGACCGTCTTGATTCGCTTGACGCTGCTG,8.87
12,GTGTATAGGATCCCATCCAACACACGTGATAAAATGGTCTTGATTCGCTTGACGCTGCTG,8.94
13,GTGTATTGGATCCCATCCAACACACGTGTTAAAATGGTCTTGATTCGCTTGACGCTGCTG,8.76
14,GGAAAAAGGCCCAGGGTAACATCGGAAGTGGGCTTAGTCTTGATTCGCTTGACGCTGCTG,9.73
15,GATTAATTTCTCCCCTTATTCGCACGTGCCATAACAGTCTTGATTCGCTTGACGCTGCTG,8.8
16,GTGTATAGGATCGCATCCAACACACGTGTTAAAATGGTCTTGATTCGCTTGACGCTGCTG,8.7
17,GGAAAGAGGCCCAGGGTAACACCGGAAGTGGGCTTAGTCTTGATTCGCTTGACGCTGCTG,10.8
18,CACAATTCTTACAGTAATGTAGCACGCGTAACTCCTGTCTTGATTCGCTTGACGCTGCTG,8.9
19,CTGGGACTTGACCCAACTCTGCGACGTGGGTCGTTTGTCTTGATTCGCTTGACGCTGCTG,8.85
20,TAACGGGAAGACGGTTGTGGTAGTTCCGGGTATTAAGTCTTGATTCGCTTGACGCTGCTG,11.2
21,GGAAAAAGCCCCAGGGTAACACCGGAAGTGGGCTTAGTCTTGATTCGCTTGACGCTGCTG,10.8

row,Sequence,binding signal (log fluorescence intensity)
1,CACAATTTTTACAGTAACGTAGCACGCGTAACTCCTGTCTTGATTCGCTTGACGCTGCTG,8.84
2,TCCGGCTACCAGCCCCACCCACTTCAGGCCTTGTAGGTCTTGATTCGCTTGACGCTGCTG,8.94
3,CAGCATCGGACTTCTTCCCTGAAGCAATTGATAACCGTCTTGATTCGCTTGACGCTGCTG,8.84
4,GATTAATTTTTGCCCTTATTCGCACGTGCCATAACAGTCTTGATTCGCTTGACGCTGCTG,8.94
5,TGTCGGGTAAGGGAATGTAGCTCACGTGAATGAAAAGTCTTGATTCGCTTGACGCTGCTG,8.76
6,GTGTATAGGATCCCATCCAACACACGTCTTAAAATGGTCTTGATTCGCTTGACGCTGCTG,8.8
7,GTGTATAGGATTCCATCCAACACACGTGTTAAAATGGTCTTGATTCGCTTGACGCTGCTG,8.95
8,CAGCATAGGACTTCTTCCCTGGAGCAATTGATAACCGTCTTGATTCGCTTGACGCTGCTG,8.85
9,CTGGGACTTGACCCAACTCTGCCACTTGGGTCGTTTGTCTTGATTCGCTTGACGCTGCTG,8.73
10,CACAATTTTTACTGTAATGTAGCACGCGTAACTCCTGTCTTGATTCGCTTGACGCTGCTG,8.89
11,TACTGACTTATATATGCGAATGCACATGAAGAGACCGTCTTGATTCGCTTGACGCTGCTG,8.94
12,GTGTATAGGATCCCATCCAACACACTTGTTAAAATGGTCTTGATTCGCTTGACGCTGCTG,8.84
13,TACTGACTTATATATGCGAATGCACATGAATCGACCGTCTTGATTCGCTTGACGCTGCTG,8.81
14,GATTAATTTCTGCCCTTATCCGCACGTGCCATAACAGTCTTGATTCGCTTGACGCTGCTG,8.85
15,GCGTATAGGATCCCATCCAACACACGTGTTAAAATGGTCTTGATTCGCTTGACGCTGCTG,8.84
16,CTGGGACTTGACCCAACTCTGCCACGTGGGTCATTTGTCTTGATTCGCTTGACGCTGCTG,8.85
17,CACAATTTTTACAGTAATGTAGCACCCGTAACTCCTGTCTTGATTCGCTTGACGCTGCTG,8.81
18,TACTGACTTAAATATGCGAATGCACATGAATAGACCGTCTTGATTCGCTTGACGCTGCTG,8.82
19,GTGGGACTTGACCCAACTCTGCCACGTGGGTCGTTTGTCTTGATTCGCTTGACGCTGCTG,8.97
20,GCTGCTGCGGTGCATACCCCACCGGATGTGACCACGGTCTTGATTCGCTTGACGCTGCTG,10.3
21,TAATGACTTATATATGCGAATGCACATGAATAGACCGTCTTGATTCGCTTGACGCTGCTG,8.82

row,Sequence,binding signal (log fluorescence intensity)
1,GATTAATTTCTGCCCTTATTCGCACGTGCCAGAACAGTCTTGATTCGCTTGACGCTGCTG,8.91
2,CGGAAGTGTCGTAAACGTCGGATATCCGGTTCATCTGTCTTGATTCGCTTGACGCTGCTG,12.6
3,CAGCATAGGACTTCTTCCCTGACGCAATTGATAACCGTCTTGATTCGCTTGACGCTGCTG,8.89
4,GCTGCTGCGGTGCATACCCCACCGGATGTGAACCCGGTCTTGATTCGCTTGACGCTGCTG,10.1
5,TCCGGCTACCAGCTCCACCCACTTCAAGCCTTGTAGGTCTTGATTCGCTTGACGCTGCTG,9.03
6,CGAAAAAGGCCCAGGGTAACACCGGAAGTGGGCTTAGTCTTGATTCGCTTGACGCTGCTG,11
7,CTGGGACGTGACCCAACTCTGCCACGTGGGTCGTTTGTCTTGATTCGCTTGACGCTGCTG,8.88
8,TAAAGGGAAGACGGTAGTGGTAGTTCCGGGTATTAAGTCTTGATTCGCTTGACGCTGCTG,11.8
9,CTGGGACTTGACCCAACACTGCCACGTGGGTCGTTTGTCTTGATTCGCTTGACGCTGCTG,8.88
10,GCCGGCTACCAGCTCCACCCACTTCAGGCCTTGTAGGTCTTGATTCGCTTGACGCTGCTG,8.83
11,CACAATTTTTACAGTAATGTAGCACACGTAACTCCTGTCTTGATTCGCTTGACGCTGCTG,8.89
12,GGAAAAAGGCCCAGGGCAACACCGGAAGTGGGCTTAGTCTTGATTCGCTTGACGCTGCTG,10.9
13,TCCGGCTACCAGCTCCACCCACTTCAGCCCTTGTAGGTCTTGATTCGCTTGACGCTGCTG,8.94
14,CACAATTTTTACAGTAATGTAGCACGCGTAACTCCCGTCTTGATTCGCTTGACGCTGCTG,8.92
15,TCCGGCTACCAGCTCCACCCACGTCAGGCCTTGTAGGTCTTGATTCGCTTGACGCTGCTG,8.9
16,CAGCATAGGACTTCTTACCTGAAGCAATTGATAACCGTCTTGATTCGCTTGACGCTGCTG,8.85
17,GGAAAAAGGCCCAGGGTAACACCGGGAGTGGGCTTAGTCTTGATTCGCTTGACGCTGCTG,8.91
18,TCCGGCTACCAGCTCCACCCACTCCAGGCCTTGTAGGTCTTGATTCGCTTGACGCTGCTG,8.71
19,GCTGCTGCGGTGCATACCCCACTGGATGTGACCCCGGTCTTGATTCGCTTGACGCTGCTG,8.92
20,GCTGCTGCGGTGCACACCCCACCGGATGTGACCCCGGTCTTGATTCGCTTGACGCTGCTG,10.3
21,CTGGGACTTGACCGAACTCTGCCACGTGGGTCGTTTGTCTTGATTCGCTTGACGCTGCTG,8.85

row,Sequence,binding signal (log fluorescence intensity)
1,GGAAAAAGGCCCAGGGTAACTCCGGAAGTGGGCTTAGTCTTGATTCGCTTGACGCTGCTG,10.4
2,CGGAAGTGTCGTAAACGTCGGATGTCCGGTTCTTCTGTCTTGATTCGCTTGACGCTGCTG,11.7
3,GGAAAAAGGGCCAGGGTAACACCGGAAGTGGGCTTAGTCTTGATTCGCTTGACGCTGCTG,10.8
4,TCAAGGGAAGACGGTTGTGGTAGTTCCGGGTATTAAGTCTTGATTCGCTTGACGCTGCTG,11.1
5,GATTAATTTCTGCCCTTATTCGCACGTGCCATTACAGTCTTGATTCGCTTGACGCTGCTG,9.01
6,CCGGGACTTGACCCAACTCTGCCACGTGGGTCGTTTGTCTTGATTCGCTTGACGCTGCTG,8.9
7,GTGTATAGGATCTCATCCAACACACGTGTTAAAATGGTCTTGATTCGCTTGACGCTGCTG,8.98
8,TAAAGGGAAGACGGTTGTGGTAGTTCAGGGTATTAAGTCTTGATTCGCTTGACGCTGCTG,8.96
9,GATTAATTTCTGCCCTTATTCGCACGTGCCTTAACAGTCTTGATTCGCTTGACGCTGCTG,8.92
10,TATCGGGTAAGGGAATGTAGATCACGTGAATGAAAAGTCTTGATTCGCTTGACGCTGCTG,8.89
11,CAGCATAGGACTTCTTCCCTGAAGCAACTGATAACCGTCTTGATTCGCTTGACGCTGCTG,8.89
12,CATCATAGGACTTCTTCCCTGAAGCAATTGATAACCGTCTTGATTCGCTTGACGCTGCTG,8.88
13,ACCGGCTACCAGCTCCACCCACTTCAGGCCTTGTAGGTCTTGATTCGCTTGACGCTGCTG,8.77
14,GCTGCTTCGGTGCATACCCCACCGGATGTGACCCCGGTCTTGATTCGCTTGACGCTGCTG,10.2
15,CAGCATAGGACTTCTTCCTTGAAGCAATTGATAACCGTCTTGATTCGCTTGACGCTGCTG,9.13
16,TGTCAGGTAAGGGAATGTAGATCACGTGAATGAAAAGTCTTGATTCGCTTGACGCTGCTG,8.9
17,GAATAATTTCTGCCCTTATTCGCACGTGCCATAACAGTCTTGATTCGCTTGACGCTGCTG,8.99
18,CGGAAGTGTCGTAAACGTCGGATATCCGGTTCTTCCGTCTTGATTCGCTTGACGCTGCTG,13
